# Experimental data reported in publication PMC4336329 (PLoS ONE, 2015).
# Among all 310,000 compounds or so, about 2,200 (0.71%) showed an effect of 50% or more. Effects have a minus sign here. Some of the results follow.
# Molecular target: human ether-à-go-go-related gene (hERG) potassium channel (human, UniProt Q12809)
# Experiment: primary screen, population patch clamp on CHO cells stably expressing hERG
# Chain of human ether-à-go-go-related gene (hERG) potassium channel (Q12809 whole entry, looked up): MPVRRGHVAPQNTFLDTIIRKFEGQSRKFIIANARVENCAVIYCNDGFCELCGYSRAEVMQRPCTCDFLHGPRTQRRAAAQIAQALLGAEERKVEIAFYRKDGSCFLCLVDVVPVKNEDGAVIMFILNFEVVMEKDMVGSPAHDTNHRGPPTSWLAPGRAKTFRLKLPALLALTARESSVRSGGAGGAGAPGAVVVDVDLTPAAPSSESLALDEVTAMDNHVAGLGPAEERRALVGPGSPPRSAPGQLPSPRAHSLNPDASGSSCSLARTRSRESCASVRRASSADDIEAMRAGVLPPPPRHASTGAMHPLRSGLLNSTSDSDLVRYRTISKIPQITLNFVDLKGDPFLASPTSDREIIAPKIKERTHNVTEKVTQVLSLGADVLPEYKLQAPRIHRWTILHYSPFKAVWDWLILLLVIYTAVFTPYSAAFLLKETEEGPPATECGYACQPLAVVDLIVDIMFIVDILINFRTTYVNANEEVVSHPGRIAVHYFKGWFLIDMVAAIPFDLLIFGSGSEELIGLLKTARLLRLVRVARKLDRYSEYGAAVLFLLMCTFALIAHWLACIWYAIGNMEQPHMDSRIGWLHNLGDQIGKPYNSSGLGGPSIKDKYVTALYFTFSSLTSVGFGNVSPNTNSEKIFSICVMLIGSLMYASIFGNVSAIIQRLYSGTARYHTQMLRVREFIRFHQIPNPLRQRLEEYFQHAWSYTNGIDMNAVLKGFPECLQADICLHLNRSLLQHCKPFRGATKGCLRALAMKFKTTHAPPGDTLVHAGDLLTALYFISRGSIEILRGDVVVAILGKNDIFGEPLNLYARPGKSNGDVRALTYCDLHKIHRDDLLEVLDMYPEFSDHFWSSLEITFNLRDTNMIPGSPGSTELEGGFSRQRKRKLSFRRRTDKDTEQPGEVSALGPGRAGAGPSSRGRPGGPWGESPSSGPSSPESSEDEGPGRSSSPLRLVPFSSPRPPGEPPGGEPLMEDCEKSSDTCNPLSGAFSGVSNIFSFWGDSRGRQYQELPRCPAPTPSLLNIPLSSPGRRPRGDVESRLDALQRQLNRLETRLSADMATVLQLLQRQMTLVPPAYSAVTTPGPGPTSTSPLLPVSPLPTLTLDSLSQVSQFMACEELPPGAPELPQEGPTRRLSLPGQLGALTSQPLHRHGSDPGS
row,Structure (SMILES),"hERG current change (%, negative = inhibition) at 1uM [%]"
1,Cc1ccc2nc3c(c(C(=O)OCC(=O)N(C)C4CCS(=O)(=O)C4)c2c1)CCCC3 (stereo not shown),6.9
2,COc1ccc(NC(=O)c2cc(-c3ccco3)on2)cc1,10.5
3,CN(C)c1ccc(-c2nc3n(n2)C(c2cccnc2)C2=C(CC(C)(C)CC2=O)N3)cc1 (stereo not shown),-3.74
4,CCCCn1c(SCC(=O)Nc2cc(C)on2)nnc1-c1cccnc1,3.95
5,O=C(CN1CCN(Cc2ccccc2)CC1)Nc1cccc(Br)c1,-16.7
6,CC1CCN(c2ccccc2NC(=O)c2ccc(C#N)cc2F)CC1,3.67
7,CN1C(C(=O)Nc2ncccn2)=C(O)c2ccccc2S1(=O)=O,6.7
8,CN(C)C(CNC(=O)c1cccnc1Sc1ccccc1)c1ccco1 (stereo not shown),1.11
9,CCCc1nn(-c2cc(Cl)ccc2OC)c2c1C(=O)CCC2,10.8
10,Cc1ccc2c(c1)COc1c3ccc(C(=O)NCC4CC4)cc3nn1-2,2.92
11,O=C(Nc1nccs1)Oc1ccccc1,7.21
12,O=C1CCCc2oc3ccc(O)cc3c21,2.65
13,CC(=O)Nc1ccc(NC(=O)CSc2nnc(-c3ccccc3)n2Cc2ccc3c(c2)OCO3)cc1,-2.18
14,Cc1ccc(C2N(C)c3ccccc3-c3nc4ccccc4n32)o1 (stereo not shown),7.19
15,C=CCN1C(=O)NC(=O)/C(=C/c2cccn2C)C1=O,4.87
16,Nc1nnnn1/N=C/c1cc(Br)ccc1O,11.9
17,O=C(c1ccc(F)c(S(=O)(=O)N2CCOCC2)c1)N(CCc1ccccc1)Cc1ccccc1,-10.2
18,CC(=O)N1CCN(C(=O)c2ccc(S(=O)(=O)Nc3ccccc3F)cc2)CC1,12.9
19,COC(=O)[C@@H](N)CS.Cl,15.6
20,CCN(C(=O)COC(=O)c1cc(S(=O)(=O)N(C)C)ccc1Cl)C1CCS(=O)(=O)C1 (stereo not shown),14.7
21,COc1ccc(CN(C)C(C)C(=O)NC2CCCc3ccccc32)cc1 (stereo not shown),-10.9
22,O=C(Cc1ncc(C(F)(F)F)cc1Cl)NCCc1ccccn1,9.02

row,Structure (SMILES),"hERG current change (%, negative = inhibition) at 1uM [%]"
1,CN(C(=O)COC(=O)c1ccc(=O)n(Cc2ccccc2)n1)c1ccccc1,3.66
2,CC(C)CSc1nc2ccccc2c(=O)[nH]1,1.81
3,COc1ccc(NC(=O)CSc2nnc(Cc3cccn3C)n2-c2ccc(OC)cc2)cc1,2.51
4,CCN(c1ccccc1)S(=O)(=O)c1ccc(Cl)c(NC(=O)CSc2nncs2)c1,-3.09
5,COc1ccc(C(=O)OCC(=O)c2ccc[nH]2)cc1,5.17
6,Cc1nc2sc(C(c3ccc(Cl)cc3)N3CC(C)OC(C)C3)c(O)n2n1 (stereo not shown),9.08
7,CCSc1nnc(Nc2ccccc2)s1,7.72
8,Cc1ccc(C)c(NC(=O)COC(=O)c2ccc3ccccc3n2)c1,-1.42
9,CCOC(=O)c1cccc(NS(=O)(=O)c2ccc(NC(C)=O)cc2)c1,4.77
10,Cc1nc(NCCO)c(C#N)c2c1COC(C)(C)C2,1.43
11,O=C1CC(c2ccccc2)CC(=O)C1=CN1CCCC1 (stereo not shown),15.6
12,CC(C)CNC(=O)c1ccccc1NC(=O)CN(c1ccccc1)S(=O)(=O)N(C)C,8.42
13,O=C(CCc1c[nH]c2ccccc12)NCCOc1ccccc1,6.46
14,CCCCN(C)C(=S)Nc1ccsc1C(=O)OC,9.15
15,Cc1cc2oc(=O)cc(-c3cc4ccccc4o3)c2cc1O,18.8
16,CC(=O)NC(CCS(C)(=O)=O)C(=O)Nc1cc(C)ccc1C (stereo not shown),6.99
17,O=C(NNC(=O)C1CCN(S(=O)(=O)c2ccc(Cl)cc2)CC1)c1ccccc1O,6.85
18,O=C(CN1N=C(c2ccccc2)CCC1=O)NCc1ccco1,10.7
19,O=C(CNC(=O)N1CC(=O)Nc2ccccc21)NCc1ccccc1,15.1
20,CC(C)(C)c1ccc(C(=O)NCC(=O)O)cc1,16.1
21,CCC(c1nnc(SCC(=O)Nc2c(F)cccc2F)n1Cc1ccccc1)N(C)C (stereo not shown),12.3
22,Cc1cc2ncn(-c3ncccc3[N+](=O)[O-])c2cc1C,13.9

row,Structure (SMILES),"hERG current change (%, negative = inhibition) at 1uM [%]"
1,COC(=O)C1=C(C)NC(=O)/C1=C\c1cc(C)n(-c2cccc(C)c2)c1C,13.1
2,CCC(=O)N1CCc2cc(Br)cc(S(=O)(=O)NCCCN(C)Cc3ccccc3)c21,5.84
3,O=C(NCc1cccnc1)/C(=C\c1ccc(-c2ccc(Br)cc2)o1)S(=O)(=O)c1ccccc1,12.2
4,C=CCNC(=O)NC(=O)CSc1nc2cc([N+](=O)[O-])ccc2n1-c1cccc(C(F)(F)F)c1,13.5
5,CC1CCCN(C(=O)c2ccc(S(=O)(=O)N3CCC(c4nc5ccccc5s4)CC3)cc2)C1 (stereo not shown),1.19
6,CCc1nc2ccccc2c(C(=O)Oc2cccc3cccnc23)c1C,9.15
7,CC(C)CN(C(=O)COC(=O)CCc1c[nH]c2ccccc12)c1c(N)n(Cc2ccccc2)c(=O)[nH]c1=O,-3.99
8,Cc1nc(NCc2cccnc2)c2c3c(sc2n1)CC(C)CC3 (stereo not shown),2.85
9,Nc1ncnc2c1ncn2[C@H]1C[C@H](O)[C@@H](COP(=O)(O)O)O1,8.97
10,Cc1ccccc1-n1c(=S)[nH]c2nc3c(cc2c1=O)CCCC3,9.53
11,COc1cc2c(cc1OC)CN(CC(=O)Nc1cccc(C(F)(F)F)c1)CC2,9.6
12,COc1ccccc1C(=O)NCCC(=O)NCC(c1ccco1)N1CCCCC1 (stereo not shown),14.6
13,CCOC(=O)c1nc(C)sc1-c1ccnn1S(=O)(=O)c1ccccc1C(F)(F)F,2
14,COc1ccc(CCNC(=O)CNCC2CCCCC2)cc1OC.O=C(O)C(=O)O,18.8
15,CCCc1nnc(NC(=O)c2nc(S(=O)(=O)Cc3ccc(C)cc3)ncc2Cl)s1,-5.38
16,CCCCNC(=O)C1CCN(Cc2ccc(OCc3ccccc3)cc2)CC1.O=C(O)C(=O)O,-49.6
17,OCc1nn2c(c1Br)NC(c1ccccc1)CC2C(F)(F)F (stereo not shown),11.8
18,CS(=O)(=O)N(CC(=O)NCCC1=CCCCC1)c1ccc2c(c1)OCO2,7.58
19,CSc1ccc(C(=S)N2CCN(Cc3ccccc3)CC2)cc1,8.06
20,CCOc1ccccc1Nc1nnc(SCC(=O)Nc2cc(C)on2)s1,17.4
21,CN(C(=O)COC(=O)c1ccccc1C(=O)N(C)c1ccccc1)c1ccccc1,5.29
22,Cc1cc(C)n(-c2nnc(Cl)c3ccccc23)n1,11.9

row,Structure (SMILES),"hERG current change (%, negative = inhibition) at 1uM [%]"
1,CCC1CCC(N2CCN(c3ccccc3F)CC2)CC1 (stereo not shown),4.59
2,N#C[C@H]1C(O)C(O)c2ccccc2N1C(=O)c1ccccc1 (stereo partly shown),8.62
3,CCO[C@@H]1OC(C(=O)N2CCN(Cc3ccccc3)CC2)=C[C@H](c2cn(C(C)=O)c3ccccc23)[C@H]1CCCO,2.08
4,COc1cccc(NC(=O)CSC2=C(C#N)C(c3ccco3)C3=C(CCCC3=O)N2)c1 (stereo not shown),1.14
5,CCCCNC(=O)C1CC(=O)N(CCC(C)C)C1 (stereo not shown),3.84
6,Cc1ccc(S(=O)(=O)N(CC(=O)NCc2ccc(F)cc2)C(=O)N2CCN(C)CC2)cc1,3.72
7,COc1ccc(Cl)cc1S(=O)(=O)N1CCC(C(=O)NC2CCCC2)CC1,-11.4
8,CS(=O)(=O)c1ccc(SCC(=O)NC2CCS(=O)(=O)C2)c([N+](=O)[O-])c1 (stereo not shown),-10.4
9,COc1ccc(CCNC(=O)COc2nsnc2N2CCOCC2)cc1OC,-13.8
10,Cc1cc(=O)oc2cc(OCC(=O)Nc3ccc(CN4CCOCC4)cc3)c(Cl)cc12,7.55
11,Cc1c(C(=O)NCCN2CCOCC2)oc2ccc(S(=O)(=O)N3CCCCCC3)cc12,0.342
12,COc1ccc(-c2cc(C#N)nc(N3CCN(C)CC3)n2)cc1,-4.96
13,O=C(Nc1cccc(C(=O)O)c1)/C(=C\c1ccccc1)NC(=O)c1ccccc1,15.3
14,O=C(CN1CCC(c2nc3ccccc3[nH]2)CC1)Nc1ccc2c(c1)OCO2,0.598
15,O=C(NC1CCCCC1)C1CC(=O)N(c2ccc(Cl)cc2)C1 (stereo not shown),4.92
16,O=C(CCn1nnc2ccccc2c1=O)N[C@H](C(=O)O)c1ccccc1,8.23
17,O=C(NC1CCCC1)C(c1cccs1)N(C(=O)c1csnn1)c1ccccc1F (stereo not shown),17.5
18,Cc1ccc(C(=O)Nc2nc3ccccc3n2CCN2CCCC2)cc1,-19.5
19,COc1ccc(CNC(=O)C(=O)NCC2OCCN2S(=O)(=O)c2ccc3c(c2)OCCO3)cc1 (stereo not shown),9.94
20,COc1ccccc1NC(=O)C(=O)NCCC1CCCCN1S(=O)(=O)c1cccs1 (stereo not shown),13.2
21,Cc1cnn(CCC(=O)NNC(=S)NCC(C)C)c1,0.673
22,O=C(C1CCN(S(=O)(=O)c2ccccc2)CC1)N(CCc1ccccc1)Cc1ccco1,4.74
